IC50 data for 3 molecules are collected here from patent publication US8920798B2, “Myostatin binding agents, nucleic acids encoding the same, and methods of treatment” (Amgen Inc., priority 2002, dated 2014).

First the molecules themselves.
T1: myostatin (Homo sapiens, UniProt O14793)
T1 construct: To produce mature myostatin, the pooled promyostatin was enzymatically cleaved between the propeptide and mature myostatin C terminal; made in house; host or cells: E. coli K-12 strain 2596 (ATCC #202174)
T1 sequence (O14793 267-375): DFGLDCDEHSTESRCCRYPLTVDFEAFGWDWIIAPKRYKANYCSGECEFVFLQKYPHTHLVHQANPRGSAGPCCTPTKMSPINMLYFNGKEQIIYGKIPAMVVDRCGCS

B1: 2xmTN8-19-21(-LE): 2x mTN8-19-21 peptibody with the LE amino acids removed (protein)
chain: [letters of human IgG1 Fc left out]GGGGGAQSEYQGLCTRWPWMCPPQGWKGSGSATGGSGGGASSGSGSATGSEYQGLCTRWPWMCPPQGWK
B2: 2xmTN8-19-33(-LE): 2x mTN8-19-33 peptibody with the LE amino acids removed (protein)
chain: [letters of human IgG1 Fc left out]GGGGGAQPESQGHCTRWPWMCPPQGWGGSGSATGGSGGGASSGSGSATGPESQGHCTRWPWMCPPQGWG
B3: mTN8-19-7(-LE): mTN8-19-7 peptibody with the LE amino acids removed (protein)
chain: [letters of human IgG1 Fc left out]GGGGGAQLADHGQCIRWPWMCPPEGWE

This assay deals with T1, myostatin. In words: C2C12 pMARE-luc cell based myostatin activity assay. The settings on record: Table VIII; affinity matured peptibodies; a range of values is given. The source says:
A myostatin-responsive reporter cell line was generated by transfection of C2C12 myoblast cells (ATCC No: CRL-1772) with a pMARE-luc construct. The pMARE-luc construct was made by cloning twelve repeats of the CAGA sequence, representing the myostatin/activin response elements (Dennler et al. EMBO 17: 3091-3100 (1998)) into a pLuc-MCS reporter vector (Stratagene cat #219087) upstream of the TATA box. The myoblast C2C12 cells naturally express myostatin/activin receptors on its cell surface. When myostatin binds the cell receptors, the Smad pathway is activated, and phosphorylated Smad binds to the response element (Maciasi-Silva et al. Cell 87:1215 (1996)), resulting in the expression of the lucerase gene. Luciferase activity is then measured using a commercial luciferase reporter assay kit (cat #E4550, Promega, Madison, Wis.) according to manufacturer's protocol. A stable line of C2C12 cells that had been transfected with pMARE-luc (C2C12/pMARE clone #44) was used to measure myostatin activity according to the following procedure.
Equal numbers of the reporter cells (C2C12/pMARE clone #44) were plated into 96 well cultures. A first round screening using two dilutions of peptibodies was performed with the myostatin concentration fixed at 4 nM. Recombinant mature myostatin was pre-incubated for 2 hours at room temperature with peptibodies at 40 nM and 400 nM respectively. The reporter cell culture was treated with the myostatin with or without peptibodies for six hours. Myostatin activity was measured by determining the luciferase activity in the treated cultures. This assay was used to initially identify peptibody hits that inhibited the myostatin signaling activity in the reporter assay. Subsequently, a nine point titration curve was generated with the myostatin concentration fixed at 4 nM. The myostatin was preincubated with each of the following nine concentrations of peptibodies: […], 0.4 nM, 4 nM, 20 nM, 40 nM, 200 nM, 400 nM, 2 uM and 4 uM for two hours before adding the mixture to the reporter cell culture. […]
B1 yielded an IC50 of 0.883 to 1.25 nM.

For the molecule B2, the IC50 was 1.03 to 1.12 nM.

Consider B3, for which the IC50 was in the range of 1.75 to 2.68 nM.

The term IC50 denotes the concentration that inhibits the measured activity by half.
